The source of these data is US20190315859A1 (EUREKA THERAPEUTICS, published 2019).

In the assay the target is T1, Recombinant human CD19 ECD-Fc fusion protein (human, UniProt P15391 20-291, biotinylated for the Octet assay (sites not given); not biotinylated when coated for ELISA).
T1 construct: domain: Fc of human IgG1 lacking the CH1 domain and including the hinge region; also called human CD19-Fc; hCD19 ECD-Fc; not shown: Fc of human IgG1 lacking the CH1 domain and including the hinge region
T1 sequence: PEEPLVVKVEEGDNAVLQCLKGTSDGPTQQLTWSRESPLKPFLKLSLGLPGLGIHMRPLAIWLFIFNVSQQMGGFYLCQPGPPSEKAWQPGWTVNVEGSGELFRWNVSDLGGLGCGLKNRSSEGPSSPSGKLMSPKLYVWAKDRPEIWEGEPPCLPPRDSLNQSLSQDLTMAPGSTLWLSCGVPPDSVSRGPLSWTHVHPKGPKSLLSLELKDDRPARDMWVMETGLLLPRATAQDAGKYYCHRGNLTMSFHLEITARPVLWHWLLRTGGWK
Put plainly: ELISA, plate coated with human CD19 ECD-Fc, phage clone detected with HRP-conjugated anti-M13 antibody, OD450. As to the method: Individual phage clones from enriched phage display panning pools were incubated in the coated plates. Binding of the phage clones was detected by HRP-conjugated anti-M13 antibodies and developed using HRP substrate. The absorbance was read at 450 nm.
For orientation: An ELISA detects its analyte on a solid surface through an enzyme-linked reagent.

B1: 61 (scFv)
scFv (VL-linker-VH), shown on M13 phage: [about 100 residues left out here]SRGGGGSGGGGSGGGGSLEMAEVQLVESGGGLVQPGGSLRLSCAASGFTVSSNYMSWVRQAPGKGLEWVSVIYSGGSTYYADSVKGRFTISRDNSKNTLYLQMNSLRAEDTAVYYCARERGMGYAFDIWGQGTMVTVSS
notes: hit from protein screening (ELISA); also called clone 61; anti-human CD19 scFv phage clone 61
In the case of B1, the binding result is recorded as “binds”.
